{
  "source": "PubChem BioAssay AID1768",
  "about": "(National Center for Advancing Translational Sciences (NCATS), 2009)",
  "note": "Out of some 270,000 compounds screened, about 620 (0.23%) were called active. The shares of active, inactive and inconclusive entries below differ from those in the screen. Calls come from the whole dose curve; as a rule, active = well fitted inhibition curve with a large enough effect in the polarisation, with a control signal flat (not every such curve was filed as active); inconclusive = small, poorly fitted or top-dose-only effect, or effect the other way, or a change in a side signal; inactive = no such curve, though single readings can be large or run the other way; the % refers to the polarisation. Where the call is inconclusive, the potency comes from a doubtful curve fit. A note “side channel” means that the fit belongs to a control or component signal, not to the main read-out. Potency is the fitted concentration of half-maximal effect; tags give direction and shape of the fitted curve or compound fluorescence and quenching.",
  "data": [
    {"molecular_target": "Menin (Homo sapiens) (UniProt O00255)", "sequence (O00255 whole entry, looked up)": "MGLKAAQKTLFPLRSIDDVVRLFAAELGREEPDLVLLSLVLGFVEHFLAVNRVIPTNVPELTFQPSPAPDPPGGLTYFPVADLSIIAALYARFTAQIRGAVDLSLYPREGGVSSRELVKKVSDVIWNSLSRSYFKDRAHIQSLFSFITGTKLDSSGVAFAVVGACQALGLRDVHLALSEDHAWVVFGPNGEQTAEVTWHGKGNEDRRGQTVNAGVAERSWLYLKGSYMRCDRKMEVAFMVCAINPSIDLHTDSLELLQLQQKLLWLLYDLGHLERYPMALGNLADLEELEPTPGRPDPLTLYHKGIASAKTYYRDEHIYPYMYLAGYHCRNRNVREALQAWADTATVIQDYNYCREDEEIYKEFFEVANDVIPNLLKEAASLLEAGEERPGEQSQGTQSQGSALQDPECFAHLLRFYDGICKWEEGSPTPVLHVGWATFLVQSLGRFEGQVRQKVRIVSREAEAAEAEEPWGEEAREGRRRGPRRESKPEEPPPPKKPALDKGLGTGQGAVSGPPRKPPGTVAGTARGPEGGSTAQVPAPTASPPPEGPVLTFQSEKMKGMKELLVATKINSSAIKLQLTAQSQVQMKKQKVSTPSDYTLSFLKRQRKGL", "experiment": "qHTS Assay for Inhibitors Targeting the Menin-MLL Interaction in MLL Related Leukemias: Competition With Texas Red Labeled MLL-derived Mutant Peptide", "details": "fluorescence polarization; series mostly up to 61.6 µM", "values": [
      {"smiles": "CC1=NN(C(N)=S)C(=O)C1N=Nc1cccc([N+](=O)[O-])c1", "note": "(stereo not given)", "Potency": "inconclusive: 11.2 µM [quencher, side channel, partial curve]"},
      {"smiles": "COc1ccccc1-n1c(=S)sc2c(=O)n(Cc3ccco3)c(SC)nc21", "Potency": "inconclusive: 31.6 µM [inhibitor, single point]"},
      {"smiles": "Cc1nn(-c2ccccc2)c(N2CCCCC2)c1/C=N/O", "Potency": "inconclusive: 2.24 µM [fluorescent, side channel, full curve]"},
      {"smiles": "O=C1CCCC2=C1C(c1ccco1)Nc1ccc3ccccc3c12", "note": "(stereo not given)", "Potency": "inconclusive: 31.6 µM [quencher, side channel, single point]"},
      {"smiles": "CC1CCC/C(=C\\Nc2ccc(O)cc2)C1=O", "note": "(stereo not given)", "Potency": "inconclusive: 15.8 µM [inhibitor, partial curve]"},
      {"smiles": "Cc1cccc(-c2nnc(-c3cccc(NC(=O)Cc4cccs4)c3)o2)c1", "Potency": "inconclusive: 14.1 µM [quencher, side channel, partial curve]"},
      {"smiles": "[O-]/C(=C(\\C(=S)Nc1cccc2ccccc12)[n+]1ccccc1)c1ccc(OC(F)F)cc1", "Potency": "inconclusive: 14.1 µM [quencher, side channel, partial curve]"},
      {"smiles": "COc1ccc(N/C=C(\\[N+](=O)[O-])S(=O)(=O)c2ccccc2)cc1", "Potency": "inconclusive: 39.8 µM [fluorescent, side channel, single point]"},
      {"smiles": "O=[N+]([O-])c1cccc(C2CC(c3ccccc3)=NN2c2ccccc2)c1", "note": "(stereo not given)", "Potency": "inconclusive: 7.08 µM [quencher, side channel, full curve]"},
      {"smiles": "COc1ccc(CNC(=S)N/N=C/c2ccc(OC)c(OC)c2)cc1", "Potency": "inconclusive: 39.8 µM [quencher, side channel, single point]"},
      {"smiles": "CSc1ccccc1N=Cc1nc(-c2ccccc2)oc1O", "Potency": "inconclusive: 11.2 µM [quencher, side channel, partial curve]"},
      {"smiles": "O=[N+]([O-])c1ccc([N+](=O)[O-])c(Nc2ccc(N3CCOCC3)cc2)c1", "Potency": "inconclusive: 15.8 µM [quencher, side channel, partial curve]"},
      {"smiles": "Cc1ccc(C)c(N2CCN(c3ccc(N4C(=O)COCC4=O)cc3[N+](=O)[O-])CC2)c1", "Potency": "inconclusive: 11.2 µM [quencher, side channel, partial curve]"},
      {"smiles": "Cc1cc(-c2nn(-c3ccccc3F)cc2CN(C)CC(O)CO)c(C)s1", "note": "(stereo not given)", "Potency": "inconclusive: 14.1 µM [fluorescent, side channel, partial curve]"},
      {"smiles": "O=C(CN1C(=O)CS/C1=C\\c1nc(-c2ccc(Cl)cc2)cs1)Nc1cccnc1Cl", "Potency": "inconclusive: 10 µM [quencher, side channel, partial curve]"},
      {"smiles": "NS(=O)(=O)c1ccc(Nc2nc(-c3ccc(F)cc3)cs2)cc1", "Potency": "inconclusive: 15.8 µM [quencher, side channel, partial curve]"},
      {"smiles": "CCc1ccc(Nc2n[n+](-c3ccccc3)c(-c3cc(OC)c(OC)cc3Br)s2)cc1", "Potency": "inconclusive: 4.47 µM [fluorescent, side channel, full curve, poor fit]"},
      {"smiles": "COc1ccccc1N/N=C/c1ccc2c(c1)OCO2", "Potency": "inconclusive: 8.91 µM [quencher, side channel, partial curve]"},
      {"smiles": "CCCc1ccc(S(=O)(=O)N/N=C\\c2ccc3c(c2)OCO3)cc1", "Potency": "inconclusive: 39.8 µM [quencher, side channel, single point]"},
      {"smiles": "COc1ccc(/C=C\\c2nc(O)c([N+](=O)[O-])c(=O)[nH]2)cc1O", "Potency": "inconclusive: 25.1 µM [quencher, side channel, single point]"},
      {"smiles": "CCn1c(C)csc1=NC(=O)c1ccccc1O", "Potency": "inconclusive: 0.794 µM [inhibitor, full curve]"},
      {"smiles": "CC(C)(C)NC(=O)Nc1cccc(Cl)c1Cl", "Potency": "inconclusive: 10 µM [quencher, side channel, partial curve]"},
      {"smiles": "O=C(Cc1nnc(NC(=O)c2ccccc2)s1)N/N=C\\c1ccc(O)c(O)c1", "Potency": "inconclusive: 25.1 µM [quencher, side channel, single point]"},
      {"smiles": "NS(=O)(=O)c1ccc(CCNC(=O)c2ccc(-c3ccccc3)cc2)cc1", "Potency": "inconclusive: 20 µM [fluorescent, side channel, single point]"},
      {"smiles": "COc1ccc(OC)c(-c2csc(NC(=O)C3=NNC(=O)CC3)n2)c1", "Potency": "inconclusive: 22.4 µM [quencher, partial curve]"},
      {"smiles": "Oc1ccc(N=C/C=C/c2ccc(Br)cc2)cc1-c1nc2ccccc2s1", "Potency": "inconclusive: 14.1 µM [quencher, side channel, partial curve]"},
      {"smiles": "COc1cc(NS(=O)(=O)c2ccc([N+](=O)[O-])cc2)c2ncccc2c1", "Potency": "inconclusive: 10 µM [quencher, side channel, partial curve]"},
      {"smiles": "CCOc1ccccc1NC(=S)NC(=O)CCc1ccccc1", "Potency": "inactive"},
      {"smiles": "CNc1c(NS(=O)(=O)c2ccc3c(c2)CCCC3)c(=O)oc2ccccc12", "Potency": "inconclusive: 15.8 µM [fluorescent, side channel, partial curve]"},
      {"smiles": "Cc1ccc(C(C)C)c(OCc2ccc(C(=O)N/N=C/c3cccc(O)c3O)cc2)c1", "Potency": "inconclusive: 10 µM [quencher, side channel, partial curve]"},
      {"smiles": "Cc1ccc(C(O)(CNCc2ccccc2)c2ccccc2)cc1", "note": "(stereo not given)", "Potency": "inconclusive: 7.94 µM [fluorescent, side channel, partial curve]"},
      {"smiles": "COC(=O)c1ccccc1NC(=O)c1noc2c1CCC2", "Potency": "inconclusive: 39.8 µM [quencher, side channel, single point]"},
      {"smiles": "Cc1cccc(-c2cc(C(=O)Nc3sc(C)c(C)c3C(N)=O)c3ccccc3n2)c1", "Potency": "inconclusive: 31.6 µM [inhibitor, single point]"},
      {"smiles": "CCCc1cc(=O)oc2cc(C)cc(OCc3nn[nH]n3)c12", "Potency": "inactive"},
      {"smiles": "O=[N+]([O-])c1ccc(N2N=C(c3ccccc3)CC2c2ccccc2O)cc1", "note": "(stereo not given)", "Potency": "inconclusive: 7.94 µM [quencher, side channel, full curve]"},
      {"smiles": "COC(=O)C1=C(C)N(Cc2ccco2)C(=O)N[C@H]1c1ccc(Br)cc1", "Potency": "inconclusive: 11.2 µM [fluorescent, side channel, partial curve]"},
      {"smiles": "COc1ccc(N=C2S/C(=C\\c3ccc(Cl)c([N+](=O)[O-])c3)C(=O)N2CCN(C)C)cc1", "Potency": "inconclusive: 10 µM [inhibitor, partial curve]"},
      {"smiles": "O=C(CN1C(=O)/C(=C\\c2ccc(F)cc2)Oc2ccccc21)NCc1ccco1", "Potency": "inconclusive: 7.08 µM [inhibitor, single point]"},
      {"smiles": "COc1cccc(Nc2nc3ccccc3n3nnnc23)c1", "Potency": "inconclusive: 17.8 µM [quencher, side channel, partial curve]"},
      {"smiles": "CSc1nc(NCCOCCO)c2sc3nc(-c4ccco4)c4c(c3c2n1)CCC4", "Potency": "inconclusive: 28.2 µM [quencher, side channel, single point]"},
      {"smiles": "CCOC(=O)c1c(NC(=O)c2ccc(C)cc2)sc2c1CC(C)(C)OC2", "Potency": "inactive"},
      {"smiles": "CCCNC(=O)Nc1cc(OC)c(OC)cc1Cc1nccc2cc(OC)c(OC)cc12", "Potency": "inactive"},
      {"smiles": "O=c1nc2s/c(=C\\c3ccco3)c(=O)n2nc1Cc1ccc(F)cc1", "Potency": "inconclusive: 25.1 µM [quencher, side channel, single point]"},
      {"smiles": "COCCn1c(-c2ccc(SC)cc2)nc2c1c(=O)[nH]c(=O)n2CC(C)C", "Potency": "inconclusive: 0.631 µM [inhibitor, full curve, poor fit]"},
      {"smiles": "O=C1NC(=Nc2ccccc2Cl)S/C1=C\\c1cccc([N+](=O)[O-])c1", "Potency": "inconclusive: 14.1 µM [quencher, side channel, partial curve]"},
      {"smiles": "CN1CCN(CCC=C2c3ccccc3Sc3ccc(S(=O)(=O)N(C)C)cc32)CC1", "Potency": "inconclusive: 8.91 µM [fluorescent, side channel, partial curve]"},
      {"smiles": "O=C(C#Cc1ccccc1)c1cccc([N+](=O)[O-])c1", "Potency": "inconclusive: 35.5 µM [quencher, side channel, single point]"},
      {"smiles": "CCOc1ccc(NC(=O)c2ccc(NS(=O)(=O)c3cccs3)cc2)cc1", "Potency": "inconclusive: 12.6 µM [quencher, side channel, partial curve]"},
      {"smiles": "N#Cc1c(C(F)(F)F)cc(=O)n2c1[nH]c1ccccc12", "Potency": "inconclusive: 14.1 µM [quencher, side channel, partial curve]"},
      {"smiles": "O=C(O)c1cc(S(=O)(=O)N2CCCCCC2)c(Cl)cc1Cl", "Potency": "inconclusive: 8.91 µM [quencher, side channel, full curve, poor fit]"},
      {"smiles": "Cc1ccc(-c2nnc(SCC(=O)N/N=C/c3ccc(C(=O)O)cc3)n2C2CCCCC2)cc1", "Potency": "inconclusive: 3.16 µM [quencher, side channel, partial curve]"},
      {"smiles": "CS(=O)(=O)N(CCc1ccccc1)CC(=O)NCc1cccnc1", "Potency": "inactive"},
      {"smiles": "O=c1cc(O)c2ccccc2n1Cc1ccccc1", "Potency": "inconclusive: 7.94 µM [quencher, side channel, partial curve]"},
      {"smiles": "CN1C(=S)N(c2ccccc2)C(=O)/C1=C/c1ccco1", "Potency": "inconclusive: 31.6 µM [quencher, side channel, single point]"},
      {"smiles": "Cc1[nH]c2ccccc2c1/C=N/NC(=O)c1cccc(S(=O)(=O)Nc2cccc(C(F)(F)F)c2)c1", "Potency": "inconclusive: 3.98 µM [quencher, side channel, full curve]"}
    ]}
  ]
}
